# Measurements published in the supplement of paper PMC3334620.
# Whole data set: some 33,000 sequences, median “E-score (-0.5 to 0.5)” near -0.016, cut for the highest 2% near 0.32. Some of the results follow.
# Target: T1, Stp1 (UniProt B3LFK1)
# T1 sequence: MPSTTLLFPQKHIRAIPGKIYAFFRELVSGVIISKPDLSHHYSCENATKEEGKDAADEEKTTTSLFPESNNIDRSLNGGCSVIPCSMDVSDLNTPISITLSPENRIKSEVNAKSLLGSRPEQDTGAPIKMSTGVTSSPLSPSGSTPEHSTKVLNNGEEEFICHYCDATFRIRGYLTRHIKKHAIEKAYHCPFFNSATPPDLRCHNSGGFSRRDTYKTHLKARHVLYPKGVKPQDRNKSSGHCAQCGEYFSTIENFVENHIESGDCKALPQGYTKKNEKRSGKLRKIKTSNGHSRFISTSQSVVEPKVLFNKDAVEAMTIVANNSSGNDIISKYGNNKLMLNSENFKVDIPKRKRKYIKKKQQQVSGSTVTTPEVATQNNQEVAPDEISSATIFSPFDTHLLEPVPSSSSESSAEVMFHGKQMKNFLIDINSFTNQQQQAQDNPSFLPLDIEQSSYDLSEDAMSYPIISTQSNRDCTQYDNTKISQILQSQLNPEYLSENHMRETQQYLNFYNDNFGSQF
# Experiment: PBM E-score (8-mer binding enrichment) (E-score (-0.5 to 0.5)); higher = stronger / more preferred TF binding; most listed sequences are background and not binding sites
# Conditions: protein concentration: 200 nM; construct: GST-full length
# Summary of the method: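 Yeast transcription factors, full-length or as DNA-binding domains, were expressed with a GST tag using PURExpress in vitro transcription/translation. At about 100-200 nM they were applied to universal all-10-mer Agilent arrays, double-stranded by primer extension on fresh or once-stripped slides. Fluorescent anti-GST detected bound protein, and masliner normalised the scans. E-scores for ungapped eight-base words, pooled with reverse complements, came from the Universal PBM Analysis Suite.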
row,Sequence,PBM E-score
1,CGATCCCC,-0.141
2,AGCGGCCA,-0.114
3,AAATCACA,-0.113
4,AAAATAGA,0.0389
5,ATTCAGTC,0.0106
6,ACGAGAGA,-0.114
7,AGCTACAA,-0.0168
8,ATGATGGC,-0.118
9,GACAACAC,0.0697
10,ACCAATTA,0.136
11,CGAGTCGC,-0.182
12,AAGCGCAT,-0.17
13,CCCCCCTC,-0.408
14,TATAGTAA,0.109
15,TAGTACGA,0.0733
16,ACTCTCCG,0.0704
17,TATTACCA,0.108
18,CCAGTAGG,-0.0159
19,CTCCTAGC,-0.0176
20,ACGAATAG,-0.134
21,GATCACGC,0.158
22,ACGGAGGC,-0.00751
23,GGAGTTGA,-0.23
24,ACACTACA,-0.0358
25,TCCCGCAA,0.109

row,Sequence,PBM E-score
1,CGTGACGA,0.0622
2,GGCGTTCA,0.158
3,ACCTAAAA,-0.0112
4,CAGTACCC,-0.217
5,ACCCACTG,-0.129
6,GACCGTTA,-0.136
7,CGCGTCTC,0.153
8,TCAGGACA,-0.102
9,CATCGCAC,-0.0888
10,ACTCTTAT,0.0603
11,GCGGTAGA,-0.078
12,CGCATACA,0.187
13,TATACAGA,0.1
14,CGGCGTTC,0.391
15,GCATGAAC,0.182
16,GCGGAATA,0.133
17,AGCACAAA,0.206
18,GAGTTTTA,0.0717
19,CACCATGC,-0.0746
20,GTCCCGGA,-0.0459
21,CAAGACGG,-0.0357
22,ACCGAATA,-0.0813
23,ACCATCGT,0.0227
24,CAGATGGG,-0.222
25,CCTGGTAA,-0.0755

row,Sequence,PBM E-score
1,CCTAGTAG,-0.163
2,ATTGATAA,0.127
3,CCCGACGA,-0.263
4,ACACGTAG,-0.0459
5,ACCTCACT,-0.059
6,CCTCGAGA,-0.0892
7,GAGCTTTA,-0.0656
8,GCGGGACC,-0.234
9,TAGACGGA,0.0477
10,AAGCTGCT,-0.0665
11,AACGGGAG,-0.0705
12,TCACGCGA,0.00427
13,GCACGCAC,0.0208
14,ACACATAA,0.122
15,CCCCTTAA,-0.172
16,TCTCGGCA,0.045
17,TTTTAAAA,0.234
18,AGGGGAGA,-0.374
19,AGTGTACA,0.0302
20,CGTAGCAA,0.211
21,CGCAGTCC,-0.13
22,GAGGCTTA,-0.0974
23,CTTCCAAC,-0.0447
24,GTGGCTTA,-0.117
25,CGGTAGGC,0.0251

row,Sequence,PBM E-score
1,CAACTCGC,0.101
2,CCCTCTAA,-0.131
3,ATAGCGAA,0.151
4,GTCACAGA,-0.212
5,AGACGGTC,-0.0485
6,TGAGAGAA,0.0963
7,CACGTACG,0.157
8,AAAAGGTC,-0.119
9,CAACATGC,0.151
10,CTGTTTTA,0.0911
11,CGAGTGGA,-0.256
12,GCACCGGA,-0.0404
13,CCAATACC,-0.139
14,CTTATTTA,-0.14
15,TAGGCCGA,-0.243
16,CAACAATC,0.136
17,CTTGTCCA,-0.0978
18,CGTCCGTA,0.0166
19,ACCTAGAT,-0.159
20,AGTTCCAC,-0.0986
21,CAAAAAAA,0.167
22,CATCAGCG,0.0863
23,ACGTGTTC,-0.0436
24,TACGCTAA,0.141
25,TATATGGA,-0.0992

row,Sequence,PBM E-score
1,AACCAGCC,-0.103
2,AGATTCAC,-0.173
3,ATCCAAAC,0.096
4,CGGCGCGC,0.475
5,CAGTTATA,-0.134
6,TAGTACCA,-0.0183
7,CGCTCGGA,0.0526
8,CCAAGTGG,0.0421
9,TATATTCA,0.175
10,GTATTGCA,-0.0366
11,CCCGATAA,-0.135
12,TCTGTGAA,0.0926
13,CAATAACG,0.149
14,AACCCCTC,-0.377
15,ACCTTCCT,-0.158
16,CCGTAGAC,0.0965
17,ACAGCAAG,0.166
18,ACGGCCCC,0.225
19,AGGGGGGC,-0.438
20,GAAGCGGC,0.426
21,AACTAGCC,-0.052
22,GACGTGAA,-0.061
23,CTAGACAA,0.0513
24,CAGGAACA,-0.328
25,CTAGTCGC,-0.157

row,Sequence,PBM E-score
1,AGCCAAGG,-0.138
2,AAAACTTA,0.11
3,CCTTGCCC,0.129
4,AATAACCG,-0.0201
5,AATTTCAG,0.148
6,TCCGTCAA,0.0115
7,ATAACTTG,0.0954
8,ATTTACAA,-0.0107
9,ACGCTACA,0.0113
10,GCGGAACC,0.102
11,ACACCAAC,-0.204
12,GGTCCGAA,0.00635
13,AGACTAGA,-0.182
14,TGTTGTAA,0.149
15,TCACAGGA,-0.0531
16,CCATCTTC,0.0277
17,TACATATA,0.199
18,ATTGATCG,0.0229
19,ATGGCAGA,0.116
20,GTTTGTTA,0.228
21,ATGCGCGG,0.307
22,AAACTGCG,-0.0893
23,TACGTTCA,-0.00934
24,CACACCAC,-0.0382
25,AATCCTTC,-0.128

row,Sequence,PBM E-score
1,CCGCGCCG,0.462
2,CCCGAGTC,-0.133
3,ATGATGCG,0.148
4,CAACGTGA,-0.108
5,AATCCACG,0.122
6,TAAGCATA,0.122
7,ATGAAGTC,-0.12
8,CTAGTACC,-0.0737
9,ACGAGAAG,0.00088
10,GTAGGATA,-0.0706
11,CAGTCCAA,-0.148
12,ACACGAGA,-0.111
13,ATGGGCCA,-0.135
14,CGCCCGAC,0.0372
15,AATATAAC,0.0318
16,AAATGGTT,0.0407
17,ATTAACGC,0.0428
18,TCGCCAGA,-0.00297
19,AATAAACC,0.0804
20,AGCGGACA,0.02
21,ACATAAAC,0.129
22,AAGTGTTA,0.0084
